# The supplement of paper PMC8728848
# The list shows a part of the results.
# B1: MPA (Maclura pomifera), P18674 (protein)
# chain: GVTFDDGAYTGIREINFEYNSETAIGGLRVTYDLNGMPFVAEDHKSFITGFKPVKISLEFPSEYIVEVSGYVGKVEGYTVIRSLTFKTNKQTYGPYGVTNGTPFSLPIENGLIVGFKGSIGYWLDYFSIYLSL
# Tests used:
# Assay in all cases: glycan array binding signal (z-score within array); higher = stronger binding
# Conditions in all cases: glycan notation: IUPAC condensed, linker removed
# Gal6S(b1-4)Glc6S = target: Gal6S(b1-4)Glc6S
# Outline: (§1)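 The binding signal is a Z-score computed within each array. Data were drawn from 3228 arrays in the Consortium for Functional Glycomics database, restricted to those with a known protein sequence. Scores were averaged over arrays of the same protein sequence at different concentrations or buffers, and over linkers, and negative values can be taken as non-binding.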
# Gal6S(b1-4)GlcNAc = target: Gal6S(b1-4)GlcNAc
# Outline: as §1
# Gal6S(b1-4)GlcNAc6S = target: Gal6S(b1-4)GlcNAc6S
# Outline: as §1
# GalNAc(a1-3)Gal = target: GalNAc(a1-3)Gal
# Outline: as §1
# GalNAc(a1-3)GalNAc = target: GalNAc(a1-3)GalNAc
# Outline: as §1
# [1] = target: GalNAc(a1-3)GalNAc(a1-3)Gal(a1-4)Gal(b1-4)GlcNAc
# Outline: as §1
# [2] = target: GalNAc(a1-3)GalNAc(b1-3)Gal(a1-4)Gal(b1-4)Glc
# Outline: as §1
# GalNAc(b1-3)Gal = target: GalNAc(b1-3)Gal
# Outline: as §1
# [3] = target: GalNAc(b1-3)Gal(a1-4)Gal(b1-4)GlcNAc
# Outline: as §1
# [4] = target: GalNAc(b1-3)Gal(a1-4)Gal(b1-4)GlcNAc(b1-3)Gal(b1-4)Glc
# Outline: as §1
# [5] = target: GalNAc(b1-3)Gal(a1-6)Gal(b1-4)Glc
# Outline: as §1
# GalNAc(b1-3)GalNAc = target: GalNAc(b1-3)GalNAc
# Outline: as §1
# GalNAc(b1-3)GlcNAc = target: GalNAc(b1-3)GlcNAc
# Outline: as §1
# GalNAc(b1-4)Gal(b1-4)Glc = target: GalNAc(b1-4)Gal(b1-4)Glc
# Outline: as §1
# GalNAc(b1-4)GlcNAc = target: GalNAc(b1-4)GlcNAc
# Outline: as §1
# [6] = target: GalNAc(b1-4)GlcNAc(b1-2)Man
# Outline: as §1
# [7] = target: GalNAc(b1-4)GlcNAc(b1-2)Man(a1-3)[GalNAc(b1-4)GlcNAc(b1-2)Man(a1-6)]Man(b1-4)GlcNAc(b1-4)GlcNAc
# Outline: as §1
# [8] = target: GalNAc(b1-4)GlcNAc(b1-3)GalNAc(b1-4)GlcNAc
# Outline: as §1
# GalNAc(b1-4)GlcNAc6S = target: GalNAc(b1-4)GlcNAc6S
# Outline: as §1
# GalNAc(b1-6)GalNAc = target: GalNAc(b1-6)GalNAc
# Outline: as §1
# GalNAc3S(b1-4)GlcNAc = target: GalNAc3S(b1-4)GlcNAc
# Outline: as §1
# GalNAc3S(b1-4)GlcNAc3S = target: GalNAc3S(b1-4)GlcNAc3S
# Outline: as §1
# [9] = target: GalNAc3S(b1-4)[Fuc(a1-3)]GlcNAc
# Outline: as §1
# GalNAc4S6S(b1-4)GlcNAc = target: GalNAc4S6S(b1-4)GlcNAc
# Outline: as §1
# GalNAc6S(b1-4)GlcNAc = target: GalNAc6S(b1-4)GlcNAc
# Outline: as §1
# Glc(a1-4)Glc = target: Glc(a1-4)Glc
# Outline: as §1
# [10] = target: Glc(a1-4)Glc(a1-4)Glc(a1-4)Glc
# Outline: as §1
# Glc(a1-6)Glc(a1-6)Glc = target: Glc(a1-6)Glc(a1-6)Glc
# Outline: as §1
# [11] = target: Glc(a1-6)Glc(a1-6)Glc(a1-6)Glc
# Outline: as §1
# Glc(b1-4)Glc = target: Glc(b1-4)Glc
# Outline: as §1
# Glc(b1-6)Glc = target: Glc(b1-6)Glc
# Outline: as §1
# GlcA(b1-3)Gal = target: GlcA(b1-3)Gal
# Outline: as §1
# GlcA(b1-3)GlcNAc = target: GlcA(b1-3)GlcNAc
# Outline: as §1
# GlcA(b1-6)Gal = target: GlcA(b1-6)Gal
# Outline: as §1
# [12] = target: GlcA3S(b1-3)Gal(b1-4)GlcNAc(b1-2)Man
# Outline: as §1
# [13] = target: GlcA3S(b1-3)Gal(b1-4)GlcNAc(b1-3)Gal(b1-4)Glc
# Outline: as §1
# [14] = target: GlcNAc(a1-3)Gal(b1-4)GlcNAc
# Outline: as §1
# [15] = target: GlcNAc(a1-4)Gal(b1-3)GlcNAc
# Outline: as §1
# [16] = target: GlcNAc(a1-4)Gal(b1-4)GalNAc
# Outline: as §1
# [17] = target: GlcNAc(a1-4)Gal(b1-4)GlcNAc
# Outline: as §1
# [18] = target: GlcNAc(a1-4)Gal(b1-4)GlcNAc(b1-3)Gal(b1-4)Glc
# Outline: as §1
# [19] = target: GlcNAc(a1-4)Gal(b1-4)GlcNAc(b1-3)Gal(b1-4)GlcNAc
# Outline: as §1
# [20] = target: GlcNAc(a1-4)Gal(b1-4)GlcNAc(b1-3)Gal(b1-4)GlcNAc(b1-3)Gal(b1-4)GlcNAc
# Outline: as §1
# [21] = target: GlcNAc(a1-4)Gal(b1-4)GlcNAc(b1-3)Gal(b1-4)[Fuc(a1-3)]GlcNAc(b1-3)Gal(b1-4)[Fuc(a1-3)]GlcNAc
# Outline: as §1
# [22] = target: GlcNAc(a1-6)Gal(b1-4)GlcNAc
# Outline: as §1
binder,measurement,setting,value
B1,glycan array binding signal (z-score),Gal6S(b1-4)Glc6S,-0.272
same,glycan array binding signal (z-score),Gal6S(b1-4)GlcNAc,-0.181
same,glycan array binding signal (z-score),Gal6S(b1-4)GlcNAc6S,-0.25
same,glycan array binding signal (z-score),GalNAc(a1-3)Gal,-0.174
same,glycan array binding signal (z-score),GalNAc(a1-3)GalNAc,-0.381
same,glycan array binding signal (z-score),[1],-0.28
same,glycan array binding signal (z-score),[2],-0.324
same,glycan array binding signal (z-score),GalNAc(b1-3)Gal,-0.205
same,glycan array binding signal (z-score),[3],-0.161
same,glycan array binding signal (z-score),[4],-0.179
same,glycan array binding signal (z-score),[5],-0.122
same,glycan array binding signal (z-score),GalNAc(b1-3)GalNAc,-0.262
same,glycan array binding signal (z-score),GalNAc(b1-3)GlcNAc,-0.211
same,glycan array binding signal (z-score),GalNAc(b1-4)Gal(b1-4)Glc,-0.154
same,glycan array binding signal (z-score),GalNAc(b1-4)GlcNAc,-0.162
same,glycan array binding signal (z-score),[6],-0.237
same,glycan array binding signal (z-score),[7],0.805
same,glycan array binding signal (z-score),[8],-0.155
same,glycan array binding signal (z-score),GalNAc(b1-4)GlcNAc6S,-0.25
same,glycan array binding signal (z-score),GalNAc(b1-6)GalNAc,-0.326
same,glycan array binding signal (z-score),GalNAc3S(b1-4)GlcNAc,-0.277
same,glycan array binding signal (z-score),GalNAc3S(b1-4)GlcNAc3S,-0.375
same,glycan array binding signal (z-score),[9],-0.307
same,glycan array binding signal (z-score),GalNAc4S6S(b1-4)GlcNAc,-0.468
same,glycan array binding signal (z-score),GalNAc6S(b1-4)GlcNAc,-0.283
same,glycan array binding signal (z-score),Glc(a1-4)Glc,0.004
same,glycan array binding signal (z-score),[10],-0.129
same,glycan array binding signal (z-score),Glc(a1-6)Glc(a1-6)Glc,-0.165
same,glycan array binding signal (z-score),[11],-0.175
same,glycan array binding signal (z-score),Glc(b1-4)Glc,-0.149
same,glycan array binding signal (z-score),Glc(b1-6)Glc,-0.208
same,glycan array binding signal (z-score),GlcA(b1-3)Gal,-0.187
same,glycan array binding signal (z-score),GlcA(b1-3)GlcNAc,-0.122
same,glycan array binding signal (z-score),GlcA(b1-6)Gal,-0.218
same,glycan array binding signal (z-score),[12],-0.571
same,glycan array binding signal (z-score),[13],-0.252
same,glycan array binding signal (z-score),[14],-0.191
same,glycan array binding signal (z-score),[15],-0.235
same,glycan array binding signal (z-score),[16],-0.276
same,glycan array binding signal (z-score),[17],-0.238
same,glycan array binding signal (z-score),[18],-0.372
same,glycan array binding signal (z-score),[19],-0.278
same,glycan array binding signal (z-score),[20],-0.184
same,glycan array binding signal (z-score),[21],-0.148
same,glycan array binding signal (z-score),[22],-0.263
